Here are results for 17 molecules from the supplement of paper PMC10037445.

Test [1] has as its system RAW-Dual. Description: IRF Lucia reporter activity, fold change vs agonist alone; higher = enhanced IRF activity. To be noted: library stock concentration (final ~1000-fold dilution): 10 mM, agonist: MPLA (TLR4) […]. Put shortly: (§1)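 After 50 nL of library stock was delivered by pin tool to RAW-Dual macrophages (50,000 cells/well, DMEM, 384-well plates), a PRR agonist was added 1 h later and the plates were kept at 37 °C, 5% CO2. Twenty hours later, IRF was read from supernatant by QuantiLuc luminescence and NF-κB by QuantiBlue absorbance at 620 nm. Reporter activity is stated as fold change over agonist-alone wells. Wells with IncuCyte confluency under 70% of agonist controls in both mask sets were counted as cytotoxic.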

The subject of test [2] is RAW-Dual. Description: IRF Lucia reporter activity, fold change vs agonist alone; cytotoxicity flag (confluency mask): not cytotoxic; higher = enhanced IRF activity. The gist of the method:
as §1

Test [3] has as its system RAW-Dual. Description: IRF Lucia reporter activity, fold change vs agonist alone; cytotoxicity flag (confluency mask): cytotoxic (confluency <70% of control); higher = enhanced IRF activity. Put shortly:
as §1

The mark [4] stands for this setting: cytotoxicity flag (confluency mask): not cytotoxic.
The mark [5] stands for this setting: agonist: 3'3'-cGAMP (STING) 10 ug/mL.
Where [6] appears, read: cytotoxicity flag (confluency mask): cytotoxic (confluency <70% of control).

The full ranking holds about 2,900 compounds; the median of “IRF Lucia reporter activity, fold change vs agonist alone” is about 0.9, and the highest 2% start at about 2.8. The list shows a part of the results.

Consider `Cc1ccc2c(c1)c1c(n2CCc2ccc(C)nc2)CCN(C)C1.Cl.Cl`, for which, in the test with RAW-Dual [1] (setting [4]), the “IRF Lucia reporter activity” value amounted to 0.966. For the molecule `Cc1ccc2c(c1)c1c(n2CCc2ccc(C)nc2)CCN(C)C1.Cl.Cl` (library stock concentration (final ~1000-fold dilution): 10 mM), the entries for the “IRF Lucia reporter activity” value with RAW-Dual [2] (setting [5]) and with RAW-Dual [2] (agonist: LPS (TLR4) 0.1 ug/mL) were 0.767 and 1.39, respectively. The matching figures for `COc1cc(OC)cc(-c2cc3cnc(N)nc3nc2NC(=O)NC(C)(C)C)c1` (library stock concentration (final ~1000-fold dilution): 10 mM): 0.693 and 0.628.

For `Nc1ncnc2c1c(-c1cnc3[nH]ccc3c1)nn2C1CCCC1` (library stock concentration (final ~1000-fold dilution): 10 mM), the “IRF Lucia reporter activity” value is 1.06 in the test on RAW-Dual [2] (setting [5]) and 0.32 with RAW-Dual [2] (agonist: LPS (TLR4) 0.1 ug/mL). On to `Nc1ncnc2c1c(-c1cnc3[nH]ccc3c1)nn2C1CCCC1`, for which, in the test with RAW-Dual [1] (setting [4]), the “IRF Lucia reporter activity” value turned out to be 1.04.

Consider `COc1ccc(C(=O)C2CCN(CC(=O)N(Cc3nc4c(c(=O)[nH]3)COCC4)CC3CC3)CC2)cc1` (library stock concentration (final ~1000-fold dilution): 10 mM), for which the “IRF Lucia reporter activity” value with RAW-Dual [2] (setting [5]) came out at 1.17; in the test on RAW-Dual [2] (agonist: LPS (TLR4) 0.1 ug/mL) it was 1.25. For `COc1ccc(C(=O)C2CCN(CC(=O)N(Cc3nc4c(c(=O)[nH]3)COCC4)CC3CC3)CC2)cc1`, the “IRF Lucia reporter activity” value in the test on RAW-Dual [1] (setting [4]) was 1.16. The same measure, in the same setting: with `CCCCc1nc(C)c(CC(=S)N(C)C)c(=O)n1Cc1ccc(-c2ccccc2-c2nnn[nH]2)cc1` the figure was 1.18. Turning to `CCCCc1nc(C)c(CC(=S)N(C)C)c(=O)n1Cc1ccc(-c2ccccc2-c2nnn[nH]2)cc1` (library stock concentration (final ~1000-fold dilution): 10 mM), the “IRF Lucia reporter activity” value in the test with RAW-Dual [2] (setting [5]) amounted to 0.998; in the test with RAW-Dual [2] (agonist: LPS (TLR4) 0.1 ug/mL) it was 0.946.

In the case of `COc1ccc(CN2CCN(C(c3ccc(F)cc3)c3ccc(F)cc3)CC2)c(OC)c1OC.Cl.Cl` (library stock concentration (final ~1000-fold dilution): 10 mM), the entries for the “IRF Lucia reporter activity” value in the test on RAW-Dual [2] (setting [5]) and in the test on RAW-Dual [2] (agonist: LPS (TLR4) 0.1 ug/mL) were 0.288 and 2.33, respectively. Turning to `COc1ccc(CN2CCN(C(c3ccc(F)cc3)c3ccc(F)cc3)CC2)c(OC)c1OC.Cl.Cl`, the “IRF Lucia reporter activity” value in the test on RAW-Dual [1] (setting [4]) is 2.06. On to `CN(C)CC/C=C1/c2ccccc2Sc2ccc(Cl)cc21.Cl`, for which, in the test with RAW-Dual [1] (setting [6]), the “IRF Lucia reporter activity” value is 1.89. As to `CN(C)CC/C=C1/c2ccccc2Sc2ccc(Cl)cc21.Cl` (library stock concentration (final ~1000-fold dilution): 10 mM), the “IRF Lucia reporter activity” value is 0.955 in the test on RAW-Dual [3] (setting [5]) and 2.08 in the test with RAW-Dual [3] (agonist: LPS (TLR4) 0.1 ug/mL). For the molecule `O=C1Nc2ccc(Cl)cc2C(C#CC2CC2)(C(F)(F)F)O1` (stereo unspecified), the “IRF Lucia reporter activity” value in the test on RAW-Dual [1] (setting [6]) is 1.07.

On to `O=C1Nc2ccc(Cl)cc2C(C#CC2CC2)(C(F)(F)F)O1` (stereo unspecified) (library stock concentration (final ~1000-fold dilution): 10 mM), for which the “IRF Lucia reporter activity” value in the test on RAW-Dual [3] (setting [5]) was 0.956; in the test on RAW-Dual [3] (agonist: LPS (TLR4) 0.1 ug/mL), 1.22. `CCCSc1nc(NC2CC2c2ccc(F)c(F)c2)c2nnn(C3CC(OCCO)C(O)C3O)c2n1` (stereo unspecified) (library stock concentration (final ~1000-fold dilution): 10 mM): the entries for the “IRF Lucia reporter activity” value with RAW-Dual [3] (setting [5]) and in the test with RAW-Dual [3] (agonist: LPS (TLR4) 0.1 ug/mL) were 0.711 and 0.762, respectively.

As for `CCCSc1nc(NC2CC2c2ccc(F)c(F)c2)c2nnn(C3CC(OCCO)C(O)C3O)c2n1` (stereo unspecified), the “IRF Lucia reporter activity” value in the test with RAW-Dual [1] (setting [6]) is 0.845.
